Drawing on PMC13233820, “Recruitment of Mre11 to recombination sites during meiosis” (Nature Communications, 2026), this text covers binding for 5 molecules.

Results are given in words; binding and its absence hold for the method and conditions named. Some binding calls cover weakened binding; strength is not graded here. For some assays here: Sequences can lack the tags named with a protein.

For assay [1], the target named is T1, Mer2, full length, two-hybrid bait (pGBDU-C1-Mer2) (S. cerevisiae) (UniProt P21651).
T1 sequence: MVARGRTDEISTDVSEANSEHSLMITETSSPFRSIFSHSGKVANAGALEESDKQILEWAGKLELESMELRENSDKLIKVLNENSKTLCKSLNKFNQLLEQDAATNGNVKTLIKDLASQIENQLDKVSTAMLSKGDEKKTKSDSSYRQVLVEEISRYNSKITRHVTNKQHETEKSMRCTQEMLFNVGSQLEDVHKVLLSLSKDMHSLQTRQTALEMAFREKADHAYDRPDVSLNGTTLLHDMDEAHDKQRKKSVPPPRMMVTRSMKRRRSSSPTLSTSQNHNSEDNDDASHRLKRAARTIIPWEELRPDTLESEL
The experiment in a line: two-hybrid; pGBDU-C1 bait (Mer2) and pGAD-C1 prey (Mre11) co-transformed into yWL365; dilution series on SC-Leu-Ura-His + 25 mM 3-AT, 4-5 days at 30 °C.

For assay [2], the target named is T2, eGFP-Mre11-10xHis (S. cerevisiae (SK1)) (UniProt P32829).
T2 sequence: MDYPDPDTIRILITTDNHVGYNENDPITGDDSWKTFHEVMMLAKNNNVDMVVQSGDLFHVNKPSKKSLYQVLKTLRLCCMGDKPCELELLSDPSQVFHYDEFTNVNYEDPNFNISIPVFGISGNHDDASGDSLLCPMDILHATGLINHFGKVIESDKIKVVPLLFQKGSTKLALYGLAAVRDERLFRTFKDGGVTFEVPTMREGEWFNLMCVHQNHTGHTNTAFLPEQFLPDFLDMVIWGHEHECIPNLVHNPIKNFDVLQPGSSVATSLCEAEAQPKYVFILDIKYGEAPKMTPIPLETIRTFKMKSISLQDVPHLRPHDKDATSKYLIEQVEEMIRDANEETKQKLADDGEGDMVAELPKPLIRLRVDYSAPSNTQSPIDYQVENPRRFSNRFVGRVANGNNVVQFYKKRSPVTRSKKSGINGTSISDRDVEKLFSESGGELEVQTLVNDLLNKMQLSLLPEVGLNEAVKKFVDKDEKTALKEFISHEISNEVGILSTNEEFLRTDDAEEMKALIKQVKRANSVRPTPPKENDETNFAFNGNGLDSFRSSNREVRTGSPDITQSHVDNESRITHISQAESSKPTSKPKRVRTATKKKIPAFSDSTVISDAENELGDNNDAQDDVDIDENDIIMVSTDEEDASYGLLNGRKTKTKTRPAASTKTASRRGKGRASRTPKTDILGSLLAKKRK
The assay can be described thus: co-purification (sequential Ni-NTA and anti-FLAG affinity); eGFP-Mre11-10xHis, Rad50 and Xrs2-2xFLAG co-expressed in Sf9; soluble extract over Ni-NTA resin, then anti-FLAG M2 affinity gel.

B1: Mre11, full length, two-hybrid prey (pGAD-C1-Mre11) (protein, UniProt P32829 1-692)
chain: MDYPDPDTIRILITTDNHVGYNENDPITGDDSWKTFHEVMMLAKNNNVDMVVQSGDLFHVNKPSKKSLYQVLKTLRLCCMGDKPCELELLSDPSQVFHYDEFTNVNYEDPNFNISIPVFGISGNHDDASGDSLLCPMDILHATGLINHFGKVIESDKIKVVPLLFQKGSTKLALYGLAAVRDERLFRTFKDGGVTFEVPTMREGEWFNLMCVHQNHTGHTNTAFLPEQFLPDFLDMVIWGHEHECIPNLVHNPIKNFDVLQPGSSVATSLCEAEAQPKYVFILDIKYGEAPKMTPIPLETIRTFKMKSISLQDVPHLRPHDKDATSKYLIEQVEEMIRDANEETKQKLADDGEGDMVAELPKPLIRLRVDYSAPSNTQSPIDYQVENPRRFSNRFVGRVANGNNVVQFYKKRSPVTRSKKSGINGTSISDRDVEKLFSESGGELEVQTLVNDLLNKMQLSLLPEVGLNEAVKKFVDKDEKTALKEFISHEISNEVGILSTNEEFLRTDDAEEMKALIKQVKRANSVRPTPPKENDETNFAFNGNGLDSFRSSNREVRTGSPDITQSHVDNESRITHISQAESSKPTSKPKRVRTATKKKIPAFSDSTVISDAENELGDNNDAQDDVDIDENDIIMVSTDEEDASYGLLNGRKTKTKTRPAASTKTASRRGKGRASRTPKTDILGSLLAKKRK
Regarding B1, the binding result in assay [1] was “binds”.

B2: Mre11-SIM3 mutant, two-hybrid prey (pGAD-C1-Mre11-SIM3) (protein, UniProt P32829 1-692)
chain: MDYPDPDTIRILITTDNHVGYNENDPITGDDSWKTFHEVMMLAKNNNVDMVVQSGDLFHVNKPSKKSLYQVLKTLRLCCMGDKPCELELLSDPSQVFHYDEFTNVNYEDPNFNISIPVFGISGNHDDASGDSLLCPMDILHATGLINHFGKVIESDKIKVVPLLFQKGSTKLALYGLAAVRDERLFRTFKDGGVTFEVPTMREGEWFNLMCVHQNHTGHTNTAFLPEQFLPDFLDMVIWGHEHECIPNLVHNPIKNFDVLQPGSSVATSLCEAEAQPKYVFILDIKYGEAPKMTPIPLETIRTFKMKSISLQDVPHLRPHDKDATSKYLIEQVEEMIRDANEETKQKLADDGEGDMVAELPKPLIRLRVDYSAPSNTQSPIDYQVENPRRFSNRFVGRVANGNNVVQFYKKRSPVTRSKKSGINGTSISDRDVEKLFSESGGELEVQTLVNDLLNKMQLSLLPEVGLNEAVKKFVDKDEKTALKEFISHEISNEVGILSTNEEFLRTDDAEEMKALIKQVKRANSVRPTPPKENDETNFAFNGNGLDSFRSSNREVRTGSPDITQSHVDNESRITHISQAESSKPTSKPKRVRTATKKKIPAFSDSTVISDAENELGDNNDAQDDVDIDENDAAAAATDEEDASYGLLNGRKTKTKTRPAASTKTASRRGKGRASRTPKTDILGSLLAKKRK
With B2, the binding result in assay [1] is “binds”.

B3: Mre11-LLK, two-hybrid prey (pGAD-C1-Mre11-LLK) (protein, UniProt P32829 1-692)
chain: MDYPDPDTIRILITTDNHVGYNENDPITGDDSWKTFHEVMMLAKNNNVDMVVQSGDLFHVNKPSKKSLYQVLKTLRLCCMGDKPCELELLSDPSQVFHYDEFTNVNYEDPNFNISIPVFGISGNHDDASGDSLLCPMDILHATGLINHFGKVIESDKIKVVPLLFQKGSTKLALYGLAAVRDERLFRTFKDGGVTFEVPTMREGEWFNLMCVHQNHTGHTNTAFLPEQFLPDFLDMVIWGHEHECIPNLVHNPIKNFDVLQPGSSVATSLCEAEAQPKYVFILDIKYGEAPKMTPIPLETIRTFKMKSISLQDVPHLRPHDKDATSKYLIEQVEEMIRDANEETKQKLADDGEGDMVAELPKPLIRLRVDYSAPSNTQSPIDYQVENPRRFSNRFVGRVANGNNVVQFYKKRSPVTRSKKSGINGTSISDRDVEKLFSESGGELEVQTLVNDLLNKMQLSLLPEVGLNEAVKKFVDKDEKTALKEFISHEISNEVGILSTNEEFLRTDDAEEMKALIKQVKRANSVRPTPPKENDETNFAFNGNGLDSFRSSNREVRTGSPDITQSHVDNESRITHISQAESSKPTSKPKRVRTATKKKIPAFSDSTVISDAENELGDNNDAQDDVDIDENDIIMVSTDEEDASYGLLNGRKTKTKTRPAASTKTASRRGKGRASRTPKTDIAGSALAKARK
On to B3, for which the binding result in assay [1] is on record as “no binding”.

B4: Xrs2-2xFlag (protein, UniProt P33301 1-854)
chain: MWVVRYQNTLEDGSISFISCCLQAFKTYSIGRSSKNPLIIKNDKSISRQHITFKWEINNSSDLKHSSLCLVNKGKLTSLNKKFMKVGETFTINASDVLKSTIIELGTTPIRIEFEWINEVWNIPPHLTQFRTMLSEYGISTEISINDIPANLMISDYPKSEDNSIRELYALVSTIPMKKSRFLMELCNTLLPTSKTNLKFDEMWNDMISNPEYNVFDFDPNILLSKFMRLNNIRVLTTIKSEPRLSSLLRTFNINLFAFDNIDSLYKYVDSLEASTEYLILTTTDKKENGKILCTIKTMLTSIIDGTLSAVINMKGASSRTLDNGKFDQISEGMSTILKTSRAPEVEASPVVSKKRKLNRRRVLPLDSLDFFAGGLSTKTLSENRSLTDAKRLNCGAESKTVISSPNIAEADEKHAPFLQNALKPTEDIGKKSGHSSPGAIIVSSPNLGTVNTSEDSLDKSLQSHKLPQPSLPEVAGIGSQTISSNSADYETAAVNSMDDAEVTKNFRVNHHQNIEQPSKNIRKLSNYSREISSPLQENCKSPVKELSIKEKSGTPHAFVEAIQETKNREVKRVKSTIVELKDEELSEEAINQLKNLAIVEPSNNLLRKSFDSEGNKTSRTTEKWENSLMEPEWHKRKNFKTFVKVRPKSKAHKEEGKNNTQSSDFIRNAAFLITRNYVPLKKYSKKDTTTKWGTEENEDMFALTEMERFGSNTFMSDNINSNTIQKRSQALNRFTNEDSSNEGEEDSFSFSRCSGTAASVQPLKNKIFITDEDDLGDIDDKSDRLNHRENNRNLFVVKEMNLRPNLSEECSKQSRHSRSATSRSRGSFGASNNGDGDDDDDDGPKFTFKRRKG
For B4, in assay [2], the binding entry is recorded as “binds”.

B5: Rad50 (protein, UniProt P12753 1-1312)
chain: MSAIYKLSIQGIRSFDSNDRETIEFGKPLTLIVGMNGSGKTTIIECLKYATTGDLPPNSKGGVFIHDPKITGEKDIRAQVKLAFTSANGLNMIVTRNIQLLMKKTTTTFKTLEGQLVAINNSGDRSTLSTRSLELDAQVPLYLGVPKAILEYVIFCHQEDSLWPLSEPSNLKKKFDEIFQAMKFTKALDNLKSIKKDMSVDIKLLKQSVEHLKLDKDRSKAMKLNIHQLQTKIDQYNEEVSEIESQLNEITEKSDKLFKSNQDFQKILSKVENLKNTKLSISDQVKRLSNSIDILDLSKPDLQNLLANFSKVLMDKNNQLRDLETDISSLKDRQSSLQSLSNSLIRRQGELEAGKETYEKNRNHLSSLKEAFQHKFQGLSNIENSDMAQVNHEMSQFKAFISQDLTDTIDQFAKDIQLKETNLSDLIKSITVDSQNLEYNKKDRSKLIHDSEELAEKLKSFKSLSTQDSLNHELENLKTYKEKLQSWESENIIPKLNQKIEEKNNEMIILENQIEKFQDRIMKTNQQADLYAKLGLIKKSINTKLDELQKITEKLQNDSRIRQVFPLTQEFQRADLEMDFQKLFINMQKNIAINNKKMHELDRRYTNALYNLNTIEKDLQDNQKSKEKVIQLLSENLPEDCTIDEYNDVLEETELSYKTALENLKMHQTTLEFNRKALEIAERDSCCYLCSRKFENESFKSKLLQELKTKTDANFEKTLKDTVQNEKEYLHSLRLLEKHIITLNSINEKIDNSQKCLEKAKEETKTSKSKLDELEVDSTKLKDEKELAESEIRPLIEKFTYLEKELKDLENSSKTISEELSIYNTSEDGIQTVDELRDQQRKMNDSLRELRKTISDLQMEKDEKVRENSRMINLIKEKELTVSEIESSLTQKQNIDDSIRSKRENINDIDSRVKELEARIISLKNKKDEAQSVLDKVKNERDIQVRNKQKTVADINRLIDRFQTIYNEVVDFEAKGFDELQTTIKELELNKAQMLELKEQLDLKSNEVNEEKRKLADSNNEEKNLKQNLELIELKSQLQHIESEISRLDVQNAEAERDKYQEESLRLRTRFEKLSSENAGKLGEMKQLQNQIDSLTHQLRTDYKDIEKNYHKEWVELQTRSFVTDDIDVYSKALDSAIMKYHGLKMQDINRIIDELWKRTYSGTDIDTIKIRSDEVSSTVKGKSYNYRVVMYKQDVELDMRGRCSAGQKVLASIIIRLALSETFGANCGVIALDEPTTNLDEENIESLAKSLHNIINMRRHQKNFQLIVITHDEKFLGHMNAAAFTDHFFKVKRDDRQKSQIEWVDINRVTY
In the case of B5, the binding result in assay [2] is listed as “binds”.
